{"source": "paper PMC4336329", "about": "(PLoS ONE, 2015)", "note": "Screen size: about 310,000 compounds; about 14,000 (4.5%) showed an effect of 50% or more. The effect is printed as a negative number. The list shows a part of the results.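 Note: peak tail current of the secondary pulse compared with the same well before compound.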", "data": [{"molecular_target": "human ether-à-go-go-related gene (hERG) potassium channel (human, UniProt Q12809)", "sequence (Q12809 whole entry, looked up)": "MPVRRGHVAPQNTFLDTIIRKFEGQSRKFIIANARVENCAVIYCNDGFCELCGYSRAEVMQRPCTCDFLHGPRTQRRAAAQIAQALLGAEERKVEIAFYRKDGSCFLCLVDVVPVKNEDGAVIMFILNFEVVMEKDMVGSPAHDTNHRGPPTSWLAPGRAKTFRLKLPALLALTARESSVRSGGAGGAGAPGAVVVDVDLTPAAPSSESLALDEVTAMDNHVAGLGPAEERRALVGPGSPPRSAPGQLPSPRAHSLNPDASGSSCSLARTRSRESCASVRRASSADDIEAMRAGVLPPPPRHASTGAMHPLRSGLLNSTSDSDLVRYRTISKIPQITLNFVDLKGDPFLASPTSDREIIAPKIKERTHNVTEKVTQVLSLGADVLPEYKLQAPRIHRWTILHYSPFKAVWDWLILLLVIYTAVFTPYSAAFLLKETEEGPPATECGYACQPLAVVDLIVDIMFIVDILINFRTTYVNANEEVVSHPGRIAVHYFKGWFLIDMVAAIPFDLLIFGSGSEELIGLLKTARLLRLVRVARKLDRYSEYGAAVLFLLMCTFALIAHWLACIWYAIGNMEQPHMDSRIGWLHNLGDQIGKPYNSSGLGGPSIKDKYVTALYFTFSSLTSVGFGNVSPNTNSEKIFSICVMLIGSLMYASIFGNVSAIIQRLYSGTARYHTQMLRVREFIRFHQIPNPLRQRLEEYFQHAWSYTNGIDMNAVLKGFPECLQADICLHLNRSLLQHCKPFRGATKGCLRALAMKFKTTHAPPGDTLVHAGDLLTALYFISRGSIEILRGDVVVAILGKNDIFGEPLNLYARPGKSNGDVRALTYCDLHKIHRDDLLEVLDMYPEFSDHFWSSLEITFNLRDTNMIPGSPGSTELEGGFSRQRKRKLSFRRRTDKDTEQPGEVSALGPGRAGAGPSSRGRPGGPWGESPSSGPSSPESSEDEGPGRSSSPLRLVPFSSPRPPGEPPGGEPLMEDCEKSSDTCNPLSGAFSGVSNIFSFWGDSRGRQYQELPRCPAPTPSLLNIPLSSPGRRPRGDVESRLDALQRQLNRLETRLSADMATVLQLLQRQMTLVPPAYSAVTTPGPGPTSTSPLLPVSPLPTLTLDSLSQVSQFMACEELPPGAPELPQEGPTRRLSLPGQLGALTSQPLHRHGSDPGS", "experiment": "primary screen, population patch clamp on CHO cells stably expressing hERG", "units": {"hERG current change (%, negative = inhibition) at 10uM": "%"}, "values": [{"smiles": "COc1cc(-c2nc(Cc3ccccc3Cl)no2)cc(OC)c1OC", "hERG current change (%, negative = inhibition) at 10uM": -12}, {"smiles": "Cc1cc(C)cc(C(=O)NCC(=O)N2CCC3(CC2)NCCc2[nH]cnc23)c1", "hERG current change (%, negative = inhibition) at 10uM": 11.9}, {"smiles": "CN(Cc1cccs1)C(=O)CNC(=O)c1ccco1", "hERG current change (%, negative = inhibition) at 10uM": 22}, {"smiles": "Cc1ccc(N2C(=O)CC(=O)NC2=O)c(C)c1", "hERG current change (%, negative = inhibition) at 10uM": 17.2}, {"smiles": "Cn1c(SCc2ccccc2F)nc2ccccc2c1=O", "hERG current change (%, negative = inhibition) at 10uM": -6.1}, {"smiles": "CCC(C)(C)n1nnnc1C(C(C)C)N(CCCO)Cc1cc2cc(C)ccc2[nH]c1=O", "note": "(stereo not shown)", "hERG current change (%, negative = inhibition) at 10uM": -20.9}, {"smiles": "CCc1ccc2oc(=O)cc(CN(C)Cc3ccccc3)c2c1", "hERG current change (%, negative = inhibition) at 10uM": -13.5}, {"smiles": "Cc1cc(OCC(=O)N2CCC(C(=O)O)CC2)c2c(C)cc(=O)oc2c1", "hERG current change (%, negative = inhibition) at 10uM": 2.76}, {"smiles": "COc1cc(/C=C(\\C#N)c2ccccn2)ccc1OCc1ccccc1Cl", "hERG current change (%, negative = inhibition) at 10uM": -21.1}, {"smiles": "CSc1nc2ccc(Nc3nc(N4CCOCC4)nc(N4CCOCC4)n3)cc2s1", "hERG current change (%, negative = inhibition) at 10uM": -35}, {"smiles": "CC(C)C[C@H](NC(=O)c1nc[nH]c1C(=O)N(C)Cc1ccccc1)C(=O)OC(C)(C)C", "hERG current change (%, negative = inhibition) at 10uM": -15.4}, {"smiles": "CN(C)c1ccc(/C=N/NC(=O)c2ccc3c(c2)OCCO3)cc1", "hERG current change (%, negative = inhibition) at 10uM": 9.93}, {"smiles": "COc1ccc(C(=O)Nc2cccc(S(C)(=O)=O)c2)cc1", "hERG current change (%, negative = inhibition) at 10uM": -5.19}, {"smiles": "CNC(=O)c1ccccc1NC(=O)C1CC(=O)N(c2ccc(OC)cc2)C1", "note": "(stereo not shown)", "hERG current change (%, negative = inhibition) at 10uM": -12.3}, {"smiles": "COC(=O)c1cccc(Nc2nc3ccccc3nc2C)c1", "hERG current change (%, negative = inhibition) at 10uM": 9.59}, {"smiles": "Cc1cccc2cc(CN(CC3CCCO3)C(=O)c3ccco3)c(=O)[nH]c12", "note": "(stereo not shown)", "hERG current change (%, negative = inhibition) at 10uM": -12.6}, {"smiles": "COc1ccc(OC)c(NC(=O)c2ccc(OCC(=O)N3CCOCC3)c(OC)c2)c1", "hERG current change (%, negative = inhibition) at 10uM": 1.58}, {"smiles": "O=C(NCCc1c[nH]c2ccccc12)c1cccc(Br)c1", "hERG current change (%, negative = inhibition) at 10uM": 0.989}, {"smiles": "COc1ccc(S(=O)(=O)n2c([N+](=O)[O-])cnc2C)c(C)c1C", "hERG current change (%, negative = inhibition) at 10uM": 15.4}, {"smiles": "CCN(CC)c1ccc(-c2nnc(SCC(=O)Nc3ccccc3C#N)n2-c2ccccc2)cc1", "hERG current change (%, negative = inhibition) at 10uM": -8.06}, {"smiles": "Cc1ccnc(-n2c(C)cc(/C=C3\\C(=O)NC(=S)N(C)C3=O)c2C)c1", "hERG current change (%, negative = inhibition) at 10uM": 12.9}, {"smiles": "O=C(CC(C(=O)O)N1CCOCC1)Nc1ccc(Cl)cc1", "note": "(stereo not shown)", "hERG current change (%, negative = inhibition) at 10uM": -10.1}, {"smiles": "COCCOC(=O)c1ccc(NC(=O)COc2ccc([N+](=O)[O-])cc2)cc1", "hERG current change (%, negative = inhibition) at 10uM": -16.7}, {"smiles": "COc1ccc(CCNC(=O)c2ccc(Cl)cc2)cc1OC", "hERG current change (%, negative = inhibition) at 10uM": 20.2}, {"smiles": "CCC(C)N(C(=O)COC(=O)CSc1ccc(C)c(C)c1)C1CCS(=O)(=O)C1", "note": "(stereo not shown)", "hERG current change (%, negative = inhibition) at 10uM": -18.9}, {"smiles": "N#C/C(=C(/O)c1ccc([N+](=O)[O-])cc1)c1nc2ccccc2[nH]1", "hERG current change (%, negative = inhibition) at 10uM": 18.9}, {"smiles": "COc1ccc(/C=N/NC(=O)c2cccc(NC(=O)c3ccc(Cl)cc3)c2)c(OC)c1", "hERG current change (%, negative = inhibition) at 10uM": -11.6}, {"smiles": "CC(=O)c1nn(-c2cccc(Br)c2)cc1C(=O)c1ccc(C)cc1", "hERG current change (%, negative = inhibition) at 10uM": 6.63}, {"smiles": "CCCCS(=O)(=O)N1CCCC(C(=O)Nc2ccc3c(c2)CCC3)C1", "note": "(stereo not shown)", "hERG current change (%, negative = inhibition) at 10uM": 2.63}, {"smiles": "CCC1(c2ccccc2)NC(=O)N(CC(=O)Nc2ccc(Cl)c(S(=O)(=O)N3CCCCC3)c2)C1=O", "note": "(stereo not shown)", "hERG current change (%, negative = inhibition) at 10uM": 12.4}, {"smiles": "C=C(Cl)COC(=O)C1C2C=CC(C2)C1C(=O)O", "note": "(stereo not shown)", "hERG current change (%, negative = inhibition) at 10uM": 5.03}, {"smiles": "COc1cccc(NC2c3ccccc3C(=O)N2Cc2ccco2)c1", "note": "(stereo not shown)", "hERG current change (%, negative = inhibition) at 10uM": -17}, {"smiles": "Cc1ccccc1NC(=S)NCc1ccc2[nH]c3c(c2c1)CCCC3", "hERG current change (%, negative = inhibition) at 10uM": -5.47}, {"smiles": "S=c1[nH]nc(-c2ccncc2)n1/N=C/c1cn(-c2ccccc2)nc1-c1ccc(Cl)cc1", "hERG current change (%, negative = inhibition) at 10uM": -2.04}, {"smiles": "O=C(CN1C(=O)c2ccccc2S1(=O)=O)NCCSc1ccccc1", "hERG current change (%, negative = inhibition) at 10uM": -9.55}, {"smiles": "Cn1cnnc1Sc1ccc(C(=O)OCC(=O)Nc2cc(Cl)cc(Cl)c2)cc1[N+](=O)[O-]", "hERG current change (%, negative = inhibition) at 10uM": -8.26}, {"smiles": "Cc1cccc(NNC(=O)C(=O)NNc2cccc(C)c2)c1", "hERG current change (%, negative = inhibition) at 10uM": 14}, {"smiles": "O=C(COC(=O)c1ccc(S(=O)(=O)N2CCCC2)cc1)NCc1ccc(Cl)cc1", "hERG current change (%, negative = inhibition) at 10uM": -6.29}, {"smiles": "COc1ccc(CNC(=O)CN2C(=O)COc3ccc(S(=O)(=O)NC4CCCC4)cc32)cc1", "hERG current change (%, negative = inhibition) at 10uM": -0.778}, {"smiles": "CCOC(=O)c1oc2c(c1C)C(=O)CCC2", "hERG current change (%, negative = inhibition) at 10uM": 15.6}, {"smiles": "COc1ccc(CC(=O)NNC2=Nc3cccc4cccc2c34)cc1", "hERG current change (%, negative = inhibition) at 10uM": 17.8}, {"smiles": "CCCOc1ccc(C2C(C(=O)c3cc4ccccc4o3)=C(O)C(=O)N2c2cc(C)on2)cc1", "note": "(stereo not shown)", "hERG current change (%, negative = inhibition) at 10uM": 20}, {"smiles": "COc1ccc(CN(CC(=O)NCCc2ccccc2)C(=O)CCC(=O)Nc2ccccn2)cc1", "hERG current change (%, negative = inhibition) at 10uM": -27.1}]}]}
